At least one peptide structure holds a part that was inferred or is arguable (an end, a ring closure or a residue). *1 amine or outer side, *2 acyl side, *3 side chain or, on linkers, in order; H or OH if unused. Where a SMILES comes first, the peptide text is derived from it. [ ]: non-standard residue; d: D form. The star is where a group is joined. dPhe(4-NO2) = N[C@H](Cc1ccc([N+](=O)[O-])cc1)C(=O)O; dPhe(3,4-Cl2) = N[C@H](Cc1ccc(Cl)c(Cl)c1)C(=O)O; dPhe(4-CF3) = N[C@H](Cc1ccc(C(F)(F)F)cc1)C(=O)O; dPhe(2,4-Cl2) = N[C@H](Cc1ccc(Cl)cc1Cl)C(=O)O; X1 = CSc1ccc(C[C@@H](N[*:1])C(=O)[*:2])cc1; dPhe(4-NH2) = Nc1ccc(C[C@@H](N)C(=O)O)cc1; dPhe(4-Br) = N[C@H](Cc1ccc(Br)cc1)C(=O)O; dPhe(4-Cl) = N[C@H](Cc1ccc(Cl)cc1)C(=O)O; dPhe(4-Me) = Cc1ccc(C[C@@H](N)C(=O)O)cc1; dPhe(4-F) = N[C@H](Cc1ccc(F)cc1)C(=O)O; d2Nal = N[C@H](Cc1ccc2ccccc2c1)C(=O)O; dΔPro = O=C(O)[C@H]1C=CCN1; ΔPro = O=C(O)[C@@H]1C=CCN1; Acryloyl = C=CC(=O)*
Legend:
[1] = test system: dissociated rat pituitary cells; test: In vitro inhibition of GnRH-induced LH release, rat LH radioimmunoassay; type: cell-based; details: 3 nanomolar GnRH; dissociated rat pituitary cells cultured 4 days
[2] = test system: ovulation in mature female Sprague-Dawley rats; test: In vivo prevention of ovulation in female rats, peptide injected in corn oil at noon on the day of proestrous; parameters: species or system rat; details: ovulating/treated

Compound | In Vitro ICR50: molar concentration ratio of test peptide to GnRH (antagonist/GnRH) required to reduce LH released to 50 percent of the control value [1] | In Vivo Rats Ovulating ([2]; 5 μg of peptide in corn oil) | In Vivo Rats Ovulating ([2]; 10 μg of peptide in corn oil)
CC(=O)N1CC=C[C@H]1C(=O)N[C@H](Cc1ccc(F)cc1)C(=O)N[C@H](Cc1ccc2ccccc2c1)C(=O)N[C@@H](CO)C(=O)N[C@@H](Cc1ccc(O)cc1)C(=O)N[C@H](Cc1c[nH]c2ccccc12)C(=O)N[C@@H](CC(C)C)C(=O)N[C@@H](CCCNC(=N)N)C(=O)N1CCC[C@H]1C(=O)NCC(N)=O [Peptide 2] (Ac-[ΔPro][dPhe(4-F)][d2Nal]SY[dW]LRPG-NH2) | 0.011 | 0 out of 10 | 
CC(=O)N1CC=C[C@H]1C(=O)N[C@H](Cc1ccc(Cl)c(Cl)c1)C(=O)N[C@H](Cc1c[nH]c2ccccc12)C(=O)N[C@@H](CO)C(=O)N[C@@H](Cc1ccc(O)cc1)C(=O)N[C@H](Cc1c[nH]c2ccccc12)C(=O)N[C@@H](CC(C)C)C(=O)N[C@@H](CCCNC(=N)N)C(=O)N1CCC[C@H]1C(=O)NCC(N)=O [Peptide 15] (Ac-[ΔPro][dPhe(3,4-Cl2)][dW]SY[dW]LRPG-NH2) | 0.039 | 4/7 | 0/10
CC(=O)N1CC=C[C@H]1C(=O)N[C@H](Cc1ccc(C(F)(F)F)cc1)C(=O)N[C@H](Cc1c[nH]c2ccccc12)C(=O)N[C@@H](CO)C(=O)N[C@@H](Cc1ccc(O)cc1)C(=O)N[C@H](Cc1c[nH]c2ccccc12)C(=O)N[C@@H](CC(C)C)C(=O)N[C@@H](CCCNC(=N)N)C(=O)N1CCC[C@H]1C(=O)NCC(N)=O [Peptide 16] (Ac-[ΔPro][dPhe(4-CF3)][dW]SY[dW]LRPG-NH2) | 0.070 | 7/9 | 
CC(=O)N1CC=C[C@H]1C(=O)N[C@H](Cc1ccc(F)cc1)C(=O)N[C@H](Cc1c[nH]c2ccccc12)C(=O)N[C@@H](CO)C(=O)N[C@@H](Cc1ccc(O)cc1)C(=O)N[C@H](Cc1c[nH]c2ccccc12)C(=O)N[C@@H](CC(C)C)C(=O)N[C@@H](CCCNC(=N)N)C(=O)N1CCC[C@H]1C(=O)NCC(N)=O [Peptide 17] (Ac-[ΔPro][dPhe(4-F)][dW]SY[dW]LRPG-NH2) | 0.021 | 0/10 | 0/10
CC(=O)Nc1ccc(C[C@@H](NC(=O)[C@@H]2C=CCN2C(C)=O)C(=O)N[C@H](Cc2c[nH]c3ccccc23)C(=O)N[C@@H](CO)C(=O)N[C@@H](Cc2ccc(O)cc2)C(=O)N[C@H](Cc2c[nH]c3ccccc23)C(=O)N[C@@H](CC(C)C)C(=O)N[C@@H](CCCNC(=N)N)C(=O)N2CCC[C@H]2C(=O)NCC(N)=O)cc1 [Peptide 18] (Ac-[ΔPro][dPhe(4-NH2)](Ac)[dW]SY[dW]LRPG-NH2) |  |  | 9/10
CC(=O)N1CC=C[C@H]1C(=O)N[C@H](Cc1ccc([N+](=O)[O-])cc1)C(=O)N[C@H](Cc1c[nH]c2ccccc12)C(=O)N[C@@H](CO)C(=O)N[C@@H](Cc1ccc(O)cc1)C(=O)N[C@H](Cc1c[nH]c2ccccc12)C(=O)N[C@@H](CC(C)C)C(=O)N[C@@H](CCCNC(=N)N)C(=O)N1CCC[C@H]1C(=O)NCC(N)=O [Peptide 19] (Ac-[ΔPro][dPhe(4-NO2)][dW]SY[dW]LRPG-NH2) | 0.011 | 2/10 | 0/10
CC(=O)N1CC=C[C@H]1C(=O)N[C@H](Cc1ccc(Br)cc1)C(=O)N[C@H](Cc1c[nH]c2ccccc12)C(=O)N[C@@H](CO)C(=O)N[C@@H](Cc1ccc(O)cc1)C(=O)N[C@H](Cc1c[nH]c2ccccc12)C(=O)N[C@@H](CC(C)C)C(=O)N[C@@H](CCCNC(=N)N)C(=O)N1CCC[C@H]1C(=O)NCC(N)=O [Peptide 20] (Ac-[ΔPro][dPhe(4-Br)][dW]SY[dW]LRPG-NH2) | 0.010 | 5/7 | 
CSc1ccc(C[C@@H](NC(=O)[C@@H]2C=CCN2C(C)=O)C(=O)N[C@H](Cc2c[nH]c3ccccc23)C(=O)N[C@@H](CO)C(=O)N[C@@H](Cc2ccc(O)cc2)C(=O)N[C@H](Cc2c[nH]c3ccccc23)C(=O)N[C@@H](CC(C)C)C(=O)N[C@@H](CCCNC(=N)N)C(=O)N2CCC[C@H]2C(=O)NCC(N)=O)cc1 [Peptide 21] (Ac-[ΔPro][X1][dW]SY[dW]LRPG-NH2) | 0.030 | 7/10 | 1/10
COc1ccc(C[C@@H](NC(=O)[C@@H]2C=CCN2C(C)=O)C(=O)N[C@H](Cc2c[nH]c3ccccc23)C(=O)N[C@@H](CO)C(=O)N[C@@H](Cc2ccc(O)cc2)C(=O)N[C@H](Cc2c[nH]c3ccccc23)C(=O)N[C@@H](CC(C)C)C(=O)N[C@@H](CCCNC(=N)N)C(=O)N2CCC[C@H]2C(=O)NCC(N)=O)cc1 [Peptide 22] (Ac-[ΔPro][dY](Me)[dW]SY[dW]LRPG-NH2) | 0.125 |  | 3/10
CC(=O)N1CC=C[C@H]1C(=O)N[C@H](Cc1ccc(C)cc1)C(=O)N[C@H](Cc1c[nH]c2ccccc12)C(=O)N[C@@H](CO)C(=O)N[C@@H](Cc1ccc(O)cc1)C(=O)N[C@H](Cc1c[nH]c2ccccc12)C(=O)N[C@@H](CC(C)C)C(=O)N[C@@H](CCCNC(=N)N)C(=O)N1CCC[C@H]1C(=O)NCC(N)=O [Peptide 23] (Ac-[ΔPro][dPhe(4-Me)][dW]SY[dW]LRPG-NH2) | 0.044 | 9/9 | 1/7
CC(=O)N1CC=C[C@H]1C(=O)N[C@H](Cc1ccc(Cl)cc1Cl)C(=O)N[C@H](Cc1c[nH]c2ccccc12)C(=O)N[C@@H](CO)C(=O)N[C@@H](Cc1ccc(O)cc1)C(=O)N[C@H](Cc1c[nH]c2ccccc12)C(=O)N[C@@H](CC(C)C)C(=O)N[C@@H](CCCNC(=N)N)C(=O)N1CCC[C@H]1C(=O)NCC(N)=O [Peptide 24] (Ac-[ΔPro][dPhe(2,4-Cl2)][dW]SY[dW]LRPG-NH2) |  | 4/7 | 5/10
C=CC(=O)N1CC=C[C@H]1C(=O)N[C@H](Cc1ccc(Cl)c(Cl)c1)C(=O)N[C@H](Cc1c[nH]c2ccccc12)C(=O)N[C@@H](CO)C(=O)N[C@@H](Cc1ccc(O)cc1)C(=O)N[C@H](Cc1c[nH]c2ccccc12)C(=O)N[C@@H](CC(C)C)C(=O)N[C@@H](CCCNC(=N)N)C(=O)N1CCC[C@H]1C(=O)NCC(N)=O [Peptide 25] (Acryloyl-[ΔPro][dPhe(3,4-Cl2)][dW]SY[dW]LRPG-NH2) | 0.048 | 4/10 | 1/10
CCNC(=O)[C@@H]1CCCN1C(=O)[C@H](CCCNC(=N)N)NC(=O)[C@H](CC(C)C)NC(=O)[C@@H](Cc1c[nH]c2ccccc12)NC(=O)[C@H](Cc1ccc(O)cc1)NC(=O)[C@H](CO)NC(=O)[C@@H](Cc1c[nH]c2ccccc12)NC(=O)[C@@H](Cc1ccc(Cl)cc1)NC(=O)[C@H]1C=CCN1C(C)=O [Peptide 34] (Ac-[dΔPro][dPhe(4-Cl)][dW]SY[dW]LRP-NHEt) | 0.2 |  | 

Source: patent publication US4409208A, “GnRH antagonists” (The Salk Institute for Biological Studies, priority 1981, dated 1983)
